Residue numbers refer to the chain shown, from its start. “And” between values parts separate entries of the source, which are not always exact repeats. Identical values can stand only once. One block for each binder: values may come before it.
How the values were obtained:
[1] = target: T1, human plasma derived FXIa (human, UniProt P03951); assay: cell-based or functional assay
[2] = target: rabbit FXI (rabbit); assay: direct ELISA, panel 'Rabbit FXI': antigen coated on the plate, IgG titrated, AP-anti-human F(ab)2 and AttoPhos fluorescence (RFU); half-maximal binding concentration of the fit, headed 'IC50' in the drawn table; unit taken from the axis 'Conc. [nM]'
Method: (§1) For direct coating ELISAs, antigens were immobilized on 384-well Maxisorp™ microtiter plates over night at 4° C. using the concentrations as shown in Table 5. After blocking with 5% skim milk powder in PBS (80 μl/well), 20 μl/well of Fab-containing E. coli lysates or purified antibodies at various concentrations (typically 12 points of a 1:3 titration starting at 200 nM IgG or Fab, respectively) were added to plates and incubated for 1 h at room temperature. […] Fluorescence emission at 535 nm was recorded with excitation at 430 nm. Multiple wash steps with PBS+0.05% Tween20 were performed in between individual assay steps.

[3] = target: cynomolgus monkey FXI (cynomolgus monkey); assay: direct ELISA, panel 'Cynomolgus monkey FXI': antigen coated on the plate, IgG titrated, AP-anti-human F(ab)2 and AttoPhos fluorescence (RFU); half-maximal binding concentration of the fit, headed 'IC50' in the drawn table; unit taken from the axis 'Conc. [nM]'
Method: as §1

[4] = target: T1, human plasma derived FXIa; assay: SET, full length IgG
[5] = target: T1, human plasma derived FXIa; assay: solution equilibrium titration (SET), IgG at 5 pM, 1:1 binding model
Method: Experiments were carried out in polypropylene microtiter plates and with PBS (GIBCO 14190, pH 7.0-7.2) containing 0.5% BSA and 0.02% Tween20 as assay buffer. Serial dilutions of unlabeled FXIa antigen were prepared, starting with a concentration at least 10 times higher than the expected KD. Wells without antigen were used to determine Bₘₐₓ values; wells containing only assay buffer were used to determine background. After addition of an appropriate amount of binder (antibody concentration similar to or below the expected KD, 60 μL final volume), the mixture was incubated over night at RT.
MSD plates were coated with 1 μg/mL human plasma derived FXIa (30 μL per well). After washing the plate with PBS containing 0.05% Tween 20, the equilibrated samples were transferred to the plates and incubated for 20 min. Following incubation, 30 μL per well of the MSD-Sulfo-tag labeled detection antibody (anti-Flag M2 (Sigma) 1:2,000) was added to the washed MSD plate and incubated for 30 min at RT on an Eppendorf shaker (700 rpm).
The SET method described in Example 2 was used to determine the KD for AM4 (IgG), and compared to NOV1401, the germlined version of its parental antibody NOV1090.

T1 sequence (P03951 19-625 C226S limits assumed): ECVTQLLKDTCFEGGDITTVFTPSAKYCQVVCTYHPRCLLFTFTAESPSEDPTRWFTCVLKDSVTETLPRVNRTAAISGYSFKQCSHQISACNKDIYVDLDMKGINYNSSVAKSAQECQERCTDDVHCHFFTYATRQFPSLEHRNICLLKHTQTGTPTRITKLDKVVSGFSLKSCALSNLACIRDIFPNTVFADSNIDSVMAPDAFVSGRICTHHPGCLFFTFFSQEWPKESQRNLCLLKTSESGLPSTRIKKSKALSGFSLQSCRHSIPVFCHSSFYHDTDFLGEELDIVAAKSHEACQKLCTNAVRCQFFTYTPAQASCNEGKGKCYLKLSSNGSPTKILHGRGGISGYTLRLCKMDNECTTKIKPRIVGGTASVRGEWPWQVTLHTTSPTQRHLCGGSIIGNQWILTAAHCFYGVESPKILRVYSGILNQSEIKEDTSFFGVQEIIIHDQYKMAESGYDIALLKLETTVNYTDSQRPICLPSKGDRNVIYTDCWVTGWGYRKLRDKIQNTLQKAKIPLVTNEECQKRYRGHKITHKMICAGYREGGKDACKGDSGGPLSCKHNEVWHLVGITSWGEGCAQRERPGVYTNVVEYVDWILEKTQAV

- TGA IC50 [1]: 9 nM
- TGA Residual Thrombin [nM] (%) [1]: 19.7% and 85.3 nM
- IC50 [2]: 0.406 nM
- IC50 [3]: 0.449 nM
B1: AM3 (IgG) (antibody)
heavy: QVQLLESGGGLVQPGGSLRLSCAASGFTFSTAAMSWVRQAPGKGLEWVSTIEYSSQETYYADSVKGRFTISRDNSKNTLYLQMNSLRAEDTAVYYCARELSYLYSGYYFDYWGQGTLVTVSSASTKGPSVFPLAPSSKSTSGGTAALGCLVKDYFPEPVTVSWNSGALTSGVHTFPAVLQSSGLYSLSSVVTVPSSSLGTQTYICNVNHKPSNTKVDKRV[skipping human IgG1 Fc with changes]
light: DIVLTQPPSVSGAPGQRVTISCSGSSSNIGSNDVSWYQQLPGTAPKLLIYKNYNRPSGVPDRFSGSKSGTSASLAITGLQAEDEADYYCSAWDQRQFDVVFGGGTKLTVLGQPKAAPSVTLFPPSSEELQANKATLVCLISDFYPGAVTVAWKADSSPVKAGVETTTPSKQSNNKYAASSYLSLTPEQWKSHRSYSCQVTHEGSTVEKTVAPTECS

- fold higher affinity than NOV1090 [4]: ~10 fold
- Kd [5]: 0.00022 nM
B2: AM4 (IgG) (antibody)
heavy: QVQLLESGGGLVQPGGSLRLSCAASGFTFSTAAMSWVRQAPGKGLEWVSTIEYSSQETYYADSVKGRFTISRDNSKNTLYLQMNSLRAEDTAVYYCARELSYLYSGYYFDYWGQGTLVTVSSASTKGPSVFPLAPSSKSTSGGTAALGCLVKDYFPEPVTVSWNSGALTSGVHTFPAVLQSSGLYSLSSVVTVPSSSLGTQTYICNVNHKPSNTKVDKRV[skipping human IgG1 Fc with changes]
light: B1 light with D1Q, I2S
notes: Germlined version of AM3, with two amino acid changes at the N-terminus of the light chain
